The test system of the test is CEM cells HIV-1 protection, formazan growth assay. Description: NCI AIDS Antiviral Assay. As to conditions: measured here: growth of uninfected CEM cells. Put shortly:
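Soluble formazan readout of cell growth; CEM cells ± HIV-1; 5 drug concs. ≥50% protection → retest; ≥50% again = moderately active; reproducible 100% = confirmed active.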

The source holds more than one record for some entries. Only these are listed. The source may hold further records. The records of an entry repeat one measurement (runs, samples, wells, individuals or studies). A tag in brackets gives the origin of a value. The letters are not those of the source and start again with each entry.

`COc1cccc2c1C(=O)c1c(O)c3c(c(O)c1C2=O)C[C@@](O)(C(=O)CO)C[C@@H]3OC1CC(N)C(O)C(C)O1` (some centres not stated): the IC50 is 1.82 nM [sample A] and 63.1 nM [sample B]. Regarding `Cc1cc(=O)c2c(O)c3c(O)cc(O)c4c5c(O)cc(O)c6c(O)c7c(=O)cc(C)c8c1c2c(c34)c(c65)c78`, the IC50 is > 100 µM [sample A] and 2.95 µM [sample B].

These data come from PubChem BioAssay AID179 (DTP/NCI, 2004).
